Results on four molecules are retold here after the supplement of paper PMC4604168 (melanoma cell lines).

The list shows a part of the results. Most values come without repeats; read them as rough.
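Also: cell number obtained by counting DAPI-stained nuclei in high-throughput microscope images with image analysis software, screen run in 1,536-well plates.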

This assay relates to WM3526. The assay is described as follows: cell count relative to DMSO control; melanoma cells; higher = more viable cells. The conditions noted are these: library dose: low library concentration; 72 h.
With `O=C(O)[C@@H]1[O][Sb](=[O])([O][Sb]2(=[O])[O][C@H]([C@H](O)CO)[C@H](O)[C@H](C(=O)O)[O]2)[O][C@H]([C@H](O)CO)[C@@H]1O` (some centres undefined) [stibogluconate] + Cn1nnc2c(C(N)=O)ncn2c1=O [temozolomide] (first compound 2 µM, partner dose 2 µM), the cell count was 101%.

In turn, `O=C(O)[C@@H]1[O][Sb](=[O])([O][Sb]2(=[O])[O][C@H]([C@H](O)CO)[C@H](O)[C@H](C(=O)O)[O]2)[O][C@H]([C@H](O)CO)[C@@H]1O` (some centres undefined) [stibogluconate] + CC(C)(C)c1cnc(CSc2cnc(NC(=O)C3CCNCC3)s2)o1 [SNS-032] (first compound 2 µM, partner dose 0.01 µM) yielded a cell count of 104%.

Molecule `O=C(O)c1ccc2c(c1)nc(Nc1cccc(Cl)c1)c1ccncc12` + CO[C@@H]1[C@H](N(C)C(=O)c2ccccc2)C[C@H]2O[C@]1(C)n1c3ccccc3c3c4c(c5c6ccccc6n2c5c31)C(=O)NC4 [Midostaurin] (first compound 0.4 µM, partner dose 0.08 µM) yielded a cell count of 31.5%.

For the molecule `O=C(O)[C@@H]1[O][Sb](=[O])([O][Sb]2(=[O])[O][C@H]([C@H](O)CO)[C@H](O)[C@H](C(=O)O)[O]2)[O][C@H]([C@H](O)CO)[C@@H]1O` (some centres undefined) [stibogluconate] + COCC[n+]1c2c(n(Cc3cnccn3)c1C)C(=O)c1ccccc1C2=O [YM155] (first compound 2 µM, partner dose 0.0004 µM), the cell count was 64.9%.
